Data from the supplement of paper PMC12355420.
Structures can show the parent of a compound that is named as a salt. The list shows a part of the results. Cut-off read from the data, not from the text of the source: active = 0.5 or less and inactive = the rest. Single values are uncertain, as repeats are few or missing.

Assays:
Settings in all cases: 50 µM; 24 h
[1] = tested on: HeLa VPS33A reporter cells; assay: relative cell viability (CellMask signal) vs DMSO (fraction of DMSO); higher = less cytotoxic;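 note: primary screen of an FDA-approved drug library in HeLa reporter cells in 96-well format, CellMask signal normalized to DMSO-treated wells set as 1, under 0.5 deemed highly cytotoxic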
[2] = tested on: HeLa VPS33A R498W KI + HA-SDC1-FLAG; assay: relative GAG core protein HA-SDC1 amount per cell number vs DMSO (fraction of DMSO); higher = more SDC1 (GAG core protein);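 note: HA-SDC1 level read out by In-Cell Western staining with an anti-HA antibody against the N-terminal tag, screening FDA-approved library drugs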
[3] = tested on: HeLa VPS33A KO + NLuc-VPS33A R498W; assay: relative mutant VPS33A R498W amount (NanoLuc luminescence) vs DMSO (fraction of DMSO); HeLa model of a glycosaminoglycan (GAG) storage disease; KI is knock-in and KO knock-out; SDC1 is syndecan 1; higher = higher mutant VPS33A level;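 note: screen of an FDA-approved drug library, NanoLuc luminescence read after lysing the treated cells, taken as a measure of mutant VPS33A protein stability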

| Structure (SMILES) | relative cell viability [1] | relative GAG core protein HA-SDC1 amount per cell number [2] | relative mutant VPS33A R498W amount [3] |
| --- | --- | --- | --- |
| C[C@](N)(Cc1ccc(O)c(O)c1)C(=O)O [Methyldopa] | 0.937 | inactive: 0.968 | 1.37 |
| OC(CCN1CCCCC1)(c1ccccc1)c1ccccc1 [Pridinol Methanesulfonate] | 1.08 | inactive: 1.13 | 0.791 |
| CC1=NN(c2ccccc2)C(=O)C1 [Edaravone] | 0.925 | inactive: 1.32 | 1.69 |
| Nc1ccc(S(=O)(=O)c2ccc(N)cc2)cc1 [Dapsone] | 1.04 | inactive: 0.851 | 1.41 |
| CC(=O)OCC(=O)[C@H]1CC[C@H]2[C@@H]3CCC4=CC(=O)CC[C@]4(C)[C@H]3CC[C@]12C [Deoxycorticosterone acetate] | 0.908 | inactive: 0.749 | 0.934 |
| Cc1ccc(C(C)C)cc1O [Carvacrol] | 1.07 | inactive: 0.811 | 1.18 |
| COC(=O)c1ccc2c(C(=Nc3ccc(N(C)C(=O)CN4CCN(C)CC4)cc3)c3ccccc3)c(O)[nH]c2c1 [Nintedanib (BIBF 1120)] | 1.44 | inactive: 1.66 | 0.791 |
| CC(C(=O)O)c1cccc(Oc2ccccc2)c1 (stereo not drawn) [Fenoprofen Calcium] | 1.02 | inactive: 0.906 | 0.955 |
| Cc1cccc(Nc2ccccc2C(=O)O)c1C [Mefenamic Acid] | 1.16 | inactive: 0.888 | 1.08 |
| C[C@]1(c2nc3c(C(N)=O)cccc3[nH]2)CCCN1 [ABT-888 (Veliparib)] | 1.05 | inactive: 0.665 | 0.89 |
| O=C(N/N=C/c1ccc([N+](=O)[O-])o1)c1ccc(O)cc1 [Nifuroxazide] | 0.876 | inactive: 0.782 | 0.648 |
| COC(=O)[C@H](c1ccccc1Cl)N1CCc2sccc2C1 [Clopidogrel] | 0.571 | active: 0.439 | 0.722 |
| COc1cc2ncnc(Nc3ccc(F)c(Cl)c3)c2cc1OCCCN1CCOCC1 [Gefitinib (ZD1839)] | 1.34 | inactive: 1.6 | 0.278 |
| CS(=O)(=O)n1cc2c(n1)CN([C@H]1CO[C@H](c3cc(F)ccc3F)[C@@H](N)C1)C2 | 1.04 | inactive: 1.07 | 0.977 |
| COc1ccc(CN2CCN(C(c3ccc(F)cc3)c3ccc(F)cc3)CC2)c(OC)c1OC [Lomerizine HCl] | 0.631 | active: 0.242 | 0.45 |
| COc1ccccc1N1CCN(CC(O)COc2cccc3ccccc23)CC1 (stereo not drawn) [Naftopidil] | 1.27 | inactive: 1.01 | 0.927 |
| O=C(Nc1c(Cl)cncc1Cl)c1ccc(OC(F)F)c(OCC2CC2)c1 [Roflumilast] | 1.02 | inactive: 1.38 | 1.21 |
| CN(C)CCC[C@@]1(c2ccc(F)cc2)OCc2cc(C#N)ccc21 [Escitalopram Oxalate] | 1.07 | inactive: 0.86 | 0.871 |
| COc1cc2c(cc1OC)C(=O)C(CC1CCN(Cc3ccccc3)CC1)C2 (stereo not drawn) [Donepezil HCl] | 0.882 | inactive: 1.33 | 1.07 |
| Oc1cc(O)c2c(c1)O[C@H](c1ccc(O)c(O)c1)[C@@H](O)C2 [(+)-Catechin hydrate] | 1.04 | inactive: 0.737 | 0.933 |
| C[N+](C)(C)C[C@H](O)CC(=O)[O-] [L-Carnitine inner salt] | 0.954 | inactive: 0.644 | 1.15 |
| NCC[C@H](O)C(=O)N[C@@H]1C[C@H](N)[C@@H](O[C@H]2O[C@H](CN)[C@@H](O)[C@H](O)[C@H]2O)[C@H](O)[C@H]1O[C@H]1O[C@H](CO)[C@@H](O)[C@H](N)[C@H]1O [Amikacin] | 0.963 | inactive: 1.04 | 1.07 |
| Cc1c(C)c2c(c(C)c1O)CCC(C)(COc1ccc(CC3SC(=O)NC3=O)cc1)O2 (stereo not drawn) [Troglitazone] | 1.09 | inactive: 1.24 | 1.38 |
| O[C@H]1[C@H](O)[C@@H](O)[C@H](O)[C@@H](O)[C@H]1O [myo-Inositol] | 0.961 | inactive: 0.908 | 1.35 |
| CS(=O)(=O)c1ccc(C2=C(c3ccccc3)C(=O)OC2)cc1 [Rofecoxib] | 1.44 | inactive: 0.587 | 1.14 |
| CC1(C)S[C@@H]2[C@H](NC(=O)[C@H](N)c3ccc(O)cc3)C(=O)N2[C@H]1C(=O)O [Amoxicillin trihydrate] | 0.983 | inactive: 0.808 | 1.24 |

| Structure (SMILES) | relative cell viability [1] | relative GAG core protein HA-SDC1 amount per cell number [2] | relative mutant VPS33A R498W amount [3] |
| --- | --- | --- | --- |
| C#C[C@]1(O)CC[C@H]2[C@@H]3CCC4=CC(=O)CC[C@@H]4[C@H]3CC[C@@]21CC [Levonorgestrel] | 1.03 | inactive: 0.814 | 0.94 |
| CS(=O)(=O)CCNCc1ccc(-c2ccc3ncnc(Nc4ccc(OCc5cccc(F)c5)c(Cl)c4)c3c2)o1 [Lapatinib ditosylate*] | 0.912 | inactive: 0.814 | 0.00724 |
| CCNC(=O)CCC/C=C\C[C@@H]1[C@@H](/C=C/[C@@H](O)CCc2ccccc2)[C@H](O)C[C@@H]1O [Bimatoprost] | 0.933 | inactive: 0.851 | 1.41 |
| C[C@@H]1O[C@@H](OC[C@H]2O[C@@H](Oc3c(-c4ccc(OCCO)c(OCCO)c4)oc4cc(OCCO)cc(O)c4c3=O)[C@H](O)[C@@H](O)[C@@H]2O)[C@H](O)[C@H](O)[C@H]1O [Troxerutin] | 1.07 | inactive: 1.05 | 1.55 |
| CCc1cc(C(N)=S)ccn1 [Ethionamide] | 1.14 | inactive: 1.13 | 0.48 |
| O=C(O)C[C@H](O)C[C@H](O)/C=C/c1c(C2CC2)nc2ccccc2c1-c1ccc(F)cc1 [Pitavastatin Calcium] | 1.01 | inactive: 0.684 | 0.73 |
| COc1ccc(-c2nc3cc(C4=NNC(=O)CC4C)ccc3[nH]2)cc1 (stereo not drawn) [Pimobendan] | 1.04 | inactive: 1.1 | 1.16 |
| COc1ccc(-c2ccc3cc(C(=O)O)ccc3c2)cc1C12CC3CC(CC(C3)C1)C2 [Adapalene sodium salt] | 1.51 | inactive: 1.42 | 0.78 |
| COc1cc(/C=C/C(=O)N2CCN(CC(=O)N3CCCC3)CC2)cc(OC)c1OC [Cinepazide maleate] | 1.12 | inactive: 0.86 | 1.37 |
| CC[C@H](C)C(=O)O[C@H]1C[C@H](O)C=C2C=C[C@H](C)[C@H](CC[C@@H](O)C[C@@H](O)CC(=O)O)[C@H]21 [Pravastatin] | 1.31 | inactive: 1.04 | 1.1 |
| CC(S)C(=O)NCC(=O)O (stereo not drawn) [Tiopronin (Thiola)] | 1.46 | inactive: 0.769 | 0.909 |
| CCCCCCCCCC(=O)N[C@@H](Cc1c[nH]c2ccccc12)C(=O)N[C@H](CC(N)=O)C(=O)N[C@@H](CC(=O)O)C(=O)N[C@@H]1C(=O)NCC(=O)N[C@@H](CCCN)C(=O)N[C@@H](CC(=O)O)C(=O)N[C@H](C)C(=O)N[C@@H](CC(=O)O)C(=O)NCC(=O)N[C@H](CO)C(=O)N[C@@H]([C@H](C)CC(=O)O)C(=O)N[C@@H](CC(=O)c2ccccc2N)C(=O)O[C@@H]1C [Daptomycin] | 1.41 | inactive: 0.99 | 1.28 |
| C[C@@H](CN1CC(=O)NC(=O)C1)N1CC(=O)NC(=O)C1 [Dexrazoxane] | 1.02 | inactive: 0.704 | 0.984 |
| CCCc1nn(C)c2c(=O)[nH]c(-c3cc(S(=O)(=O)N4CCN(C)CC4)ccc3OCC)nc12 [Sildenafil Citrate] | 0.996 | inactive: 0.948 | 0.852 |
| N[C@@H](CC(=O)N1CCn2c(nnc2C(F)(F)F)C1)Cc1cc(F)c(F)cc1F [Sitagliptin phosphate monohydrate] | 1.27 | inactive: 0.94 | 0.765 |
| Cc1cc(-c2ccc(/N=N/c3ccc4c(S(=O)(=O)O)cc(S(=O)(=O)O)c(N)c4c3O)c(C)c2)ccc1/N=N/c1ccc2c(S(=O)(=O)O)cc(S(=O)(=O)O)c(N)c2c1O [Evans Blue tetrasodium salt] | 1.95 | inactive: 0.593 | 0.914 |
| NC(=O)c1ccc[n+]([C@@H]2O[C@H](COP(=O)([O-])OP(=O)(O)OC[C@H]3O[C@@H](n4cnc5c(N)ncnc54)[C@H](O)[C@@H]3O)[C@@H](O)[C@H]2O)c1 | 0.935 | inactive: 0.922 | 0.776 |
| CC(C)c1ccc2oc3nc(N)c(C(=O)O)cc3c(=O)c2c1 [Amlexanox] | 1.08 | inactive: 0.767 | 0.931 |
| Cc1cc2nc3c(=O)[nH]c(=O)nc-3n(C[C@H](O)[C@H](O)[C@H](O)COP(=O)(O)OP(=O)(O)OC[C@H]3O[C@@H](n4cnc5c(N)ncnc54)[C@H](O)[C@@H]3O)c2cc1C [Flavin adenine dinucleotide disodium] | 1.08 | inactive: 0.839 | 0.721 |
| COc1ccc2cc3[n+](cc2c1OC)CCc1cc2c(cc1-3)OCO2 [Berberine] | 1.02 | active: 0.399 | 0.886 |
| Cc1cccc(CN2CCN(C(c3ccccc3)c3ccc(Cl)cc3)CC2)c1 (stereo not drawn) [Meclizine 2HCl] | 0.707 | active: 0.322 | 0.522 |
| CC1=C(/C=C/C(C)=C/C=C/C(C)=C/CO)C(C)(C)CCC1 [Vitamin A] | 1.01 | active: 0.277 | 2.37 |
| COc1cc([C@@H]2c3cc4c(cc3[C@@H](O[C@@H]3O[C@@H]5CO[C@@H](C)O[C@H]5[C@H](O)[C@H]3O)[C@H]3COC(=O)[C@H]23)OCO4)cc(OC)c1O [Etoposide] | 1.03 | active: 0.355 | 5.2 |
| CN(C)CCC=C1c2ccccc2CCc2ccccc21 [Amitriptyline HCl] | 0.761 | active: 0.317 | 0.834 |
| CC[C@@]1(O)C(=O)OCc2c1cc1n(c2=O)Cc2cc3cc(O)ccc3nc2-1 [(S)-10-Hydroxycamptothecin] | 1.14 | inactive: 0.547 | 0.572 |
